In paper PMC12040169 (PLOS Biology, 2025):
Some of the results follow.

These molecules were tested on T1, C. trachomatis L2/434/Bu expressing GFP (CTL2-GFP). Conditions: total inclusion area; 28.5 h, 10 µM; inhibitor.
T1 construct: L2/434/Bu GFP intracellular growth in HeLa cells
Design: species or system HeLa; C. trachomatis total inclusion area by high-content imaging, normalised to DMSO
Procedure, shortened: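 Following bulk GFP and resorufin fluorescence reads, infected cells were fixed, Hoechst-stained and imaged on a high-content platform. Inclusion total area and number per well served as growth proxies; nuclei counts indicated host viability. MICs were derived as for the fluorescence assay.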

Row | SMILES | % of control remaining
1 | CN1CCC2CN(CCCC(c3ccc(F)cc3)c3ccc(F)cc3)CCN2C1=O (stereo not drawn) [CBK024865C] | 49.8978
2 | S=c1n(CN2CCC(c3ccccc3)CC2)nc(Cc2ccccc2)n1-c1ccccc1 [CBK265037] | 103.661
3 | CN1CCN(C(=O)c2cccc(-c3ncc(OCC(F)(F)F)nc3N)c2)CC1 [CBK145196] | 60.0228
4 | CN1CCN(c2nccnc2-c2cccc(F)c2)CC1 [CBK036876] | 93.1318
5 | CCn1c(C)nc2cc(NC(=O)Cn3cccn3)ccc21 [CBK281828] | 101.405
6 | COc1nccnc1OC1CCN(CC2CCCCC2)CC1 [CBK084263] | 84.761
7 | O=C(Cc1ccc(Cl)cc1Cl)Nc1ccc2ncccc2c1 [CBK159787] | 92.132
8 | CC1Cc2cc(C(O)CN3CCCCC3)ccc2N1C(=O)C1CC1 (stereo not drawn) [CBK283144] | 109.836
9 | CC(=O)N1CCC[C@@H](N)[C@@H]1c1ccccc1F [CBK281562] | 86.0872
10 | Cc1ccccc1OCC(=O)Nc1ccc(CSc2ccccc2)cc1 [CBK264651] | 84.1141
11 | Cc1ccc(Cl)cc1-n1cc(-c2ccc(F)cc2F)nn1 [CBK112995] | 84.3932
12 | CCN1C(=O)c2ccccc2C(=O)[C@@]2(C)CN(C)C[C@@H]12 [CBK283478] | 93.5441
13 | CCOC(=O)c1cccc(NS(=O)(=O)c2c(C)noc2C)c1 [CBK034339] | 112.347
14 | Cc1ccc(C)c(NC(=S)NCCc2ccc(S(N)(=O)=O)cc2)c1 [CBK264879] | 98.594
15 | COC(=O)c1ccc(OCc2nnn[nH]2)cc1 [CBK269544] | 99.5827
16 | Nc1ncc(-c2cncnc2)nc1NC1CC1 [CBK063869] | 111.043
17 | CCc1ccc(CCC(=O)N2CCN(S(=O)(=O)c3sc(C(=O)O)c(C)c3C(=O)O)CC2)cc1 [CBK297138] | 105.414
18 | CN(C)CCCNC(=O)Nc1cccc(-c2nc(-c3ccc(C#N)cc3)cnc2N)c1 [CBK116287] | 25.7928
19 | O=c1[nH]c(=O)c2cc(S(=O)(=O)NCC3(c4ccccc4)CCCC3)ccc2[nH]1 [CBK286387] | 127.418
20 | Cn1nc(NC(=O)CC(C)(C)CC(=O)O)c2c(F)cccc21 [CBK057122] | 39.5079
21 | COc1c(O)ccc(/C=N/NC(=O)COc2c(Br)cc(Br)cc2Br)c1[N+](=O)[O-] [CBK261957] | 92.4987

Row | SMILES | % of control remaining
22 | COCCNc1nc(-c2ccc(C(C)=O)s2)ccc1C(=O)N(C)CCN(C)C [CBK105914] | 77.1815
23 | COc1ccccc1CC(=O)N[C@@H]1CCN(Cc2cccnc2)C[C@H]1O [CBK307200] | 69.1677
24 | CC(C)c1nnc(NS(=O)(=O)Cc2ccccc2)s1 [CBK045540] | 83.033
25 | COc1ccc(Cl)cc1N1CCN(CC2CCCCC2)CC1 [CBK138336] | 102.378
26 | CCN1CCCC1CNC(=O)c1ccc(-c2ccc(OC)cc2)nc1N(C)C(C)=O (stereo not drawn) [CBK076491] | 91.426
27 | Cc1cc(Sc2ncnc(N)c2[N+](=O)[O-])ncn1 [CBK267235] | 6.441
28 | CC(=O)Nc1ccc(-c2cncc(N3CCN(CCN4CCCC4)CC3)n2)cc1 [CBK065710] | 128.588
29 | CC(=O)NCc1ccc(-c2cc(CN(C)C)n(C)n2)cc1 [CBK281667] | 87.4033
30 | O=C(Cc1ccccc1Cl)N1CCC(O)(c2cccnc2F)CC1 [CBK284360] | 71.3587
31 | Cc1nn(C)c(Cl)c1S(=O)(=O)NC1(c2ccc(F)cc2)CC1 [CBK282800] | 106.566
32 | Cc1cc(C)c(C)c(CSCc2nc3ccccc3[nH]2)c1C [CBK266466] | 101.006
33 | CC(C)(CSc1ccccn1)NS(=O)(=O)c1ccccc1 [CBK268513] | 92.3358
34 | O=C1CCCN1c1ccc(S(=O)(=O)N(c2ccccc2)C2CCNCC2)cc1 [CBK165122T] | 56.4916
35 | O=C(O)C1C2CCC(CC2)C1C(=O)N1CCN(Cc2ccccc2Cl)CC1 (stereo not drawn) [CBK270336] | 102.301
36 | CCNC(=O)C1CCN(Cc2nc(-c3cc(OC)ccc3F)oc2C)C1 (stereo not drawn) [CBK307040] | 42.0164
37 | c1ccc(SCc2csc(-c3ccc4c(c3)OCO4)n2)nc1 [CBK270294] | 101.97
38 | CCCc1cc(O)nc(SCC(=O)Nc2ccc(Cl)cc2Cl)n1 [CBK265147] | 89.9451
39 | COCCNc1nc2c([nH]1)c(=O)n(C)c(=O)n2C [CBK288104] | 98.444
40 | CCn1c(=O)n(CC(=O)N2CCC(C)CC2)c2cccnc21 [CBK283895] | 97.4749
41 | O=P(O)(CNCc1ccccc1)CNCc1ccccc1 [CBK261604C] | 90.1762
42 | Cc1nccn1CCNC(=O)Cn1cnc2ccccc21 [CBK281983] | 120.854

Row | SMILES | % of control remaining
43 | CCOc1ccc(/N=N\c2ccc(O)c(/C=N\Nc3ccc([N+](=O)[O-])cc3)c2)cc1 [CBK262111] | 106.594
44 | CCN1CC2(CCN(Cc3ccc4nsnc4c3)CC2)c2ccccc21 [CBK136994] | 111.575
45 | COc1ncc(-c2cncc(N3CCN(CCO)CC3)n2)c(OC)n1 [CBK065146] | 124.818
46 | CCCCSc1nc(N)cc(N2CCCC(N3CCCC3=O)C2)n1 (stereo not drawn) [CBK306995] | 87.8466
47 | O=C(C[S+]([O-])c1ccc(C(F)(F)F)cc1[N+](=O)[O-])Oc1cccc2cccnc12 (stereo not drawn) [CBK266716] | 76.225
48 | COc1cc(CNc2nccnc2-c2cccnc2)cc(OC)c1 [CBK038061] | 81.4938
49 | c1ccc2c(CCN3CCC[C@@H]3CN3CCCC3)c[nH]c2c1 [CBK149104] | 90.4804
50 | N/C(CC(=O)Nc1cc(Cl)cc(Cl)c1)=N\O [CBK228614] | 59.8291
51 | Cc1ccccc1Nc1nc(N)nc(CN2CCCC(C(F)(F)F)C2)n1 (stereo not drawn) [CBK305073] | 32.9174
52 | CCCCOc1ccc(-c2nnn(C(C)C(=O)OCC)n2)cc1 (stereo not drawn) [CBK068558] | 93.8201
53 | O=C(Nc1sc2c(c1C(=O)NCc1cccnc1)CCCC2)c1sc2ccccc2c1Cl [CBK266334] | 112.476
54 | O=C(c1ccco1)N1CCCC(n2c(=O)oc3ccc(Cl)cc32)C1 (stereo not drawn) [CBK282892] | 108.937
55 | O=C(CSc1cc(Cl)ccc1Cl)Nc1cccc(Cl)c1 [CBK263712] | 80.7861
56 | CC(C)Oc1ccc(C(=O)N2CCN(c3ccccc3)CC2)cc1 [CBK305847] | 56.6075
57 | COc1ccc([N+](=O)[O-])cc1N1CCN(C(=O)OC(C)(C)C)CC1 [CBK003504] | 83.7811
58 | COc1nc(N)nc2c1ccn2C1CC(O)C(CO)O1 (stereo not drawn) [CBK201177] | 74.2585
59 | C=Cn1ncc(CN2CCN(C3CCCCC3)C(=O)C2)c1C [CBK282526] | 134.585
60 | O=C(NC(C(=O)N/N=C/c1cccc(O)c1)c1n[nH]c(=O)c2ccccc12)c1ccccc1 (stereo not drawn) [CBK262853] | 66.03
61 | COc1ccc(CCNc2c(Cc3ccccc3)c(C)c(C#N)c3nc4ccccc4n23)cc1OC [CBK263135] | 99.6474
62 | CCCCCOc1ccc(Nc2cc(-c3ccco3)ncn2)cc1 [CBK090892] | 68.3743
63 | CCCCc1c(C(=O)O)cc(OC)cc1C(=O)O [CBK217866] | 95.0268

Row | SMILES | % of control remaining
64 | COc1ccc(S(=O)(=O)NC[C@H]2C[C@@H]3CC[N@]2C[C@@H]3CN2CCSCC2)cc1 [CBK288769] | 98.4227
65 | O=C(CCSc1nnnn1-c1ccc(C(=O)O)cc1)Nc1ccc(F)cc1 [CBK300497] | 70.4018
66 | CC(=O)N1c2ccc(NC(=O)C3(C)CCCO3)cc2CC1C (stereo not drawn) [CBK282702] | 118.356
67 | CCCNc1cc(-c2cccc(Cl)c2)nc2ccnn12 [CBK037747] | 113.043
68 | Cc1ccc(O)c(NC(=O)c2nc3ncccn3n2)c1 [CBK267629] | 104.244
69 | Cc1n[nH]c(=S)n1-c1ccc(Cl)cc1 [CBK012457] | 49.2752
70 | COc1ccc(CC(=O)N2CCNC(=O)C2Cc2ccccc2-c2ccccc2)cc1OC (stereo not drawn) [CBK285827] | 119.38
71 | Clc1cc(-c2cnc3ccccc3n2)c(Cl)s1 [CBK006186] | 107.625
72 | COc1cc(C(=O)Nc2cc(-c3nc4ncccc4o3)ccc2C)ccc1OCc1ccc(Cl)cc1 [CBK264704] | 100.01
73 | O=C(Nc1ccc2[nH]ccc2c1)c1ccc(F)c(F)c1 [CBK159683] | 110.453
74 | CCc1ccc(Oc2c[nH]nc2-c2ccc(OCc3cnn(-c4ccccc4)c3)cc2O)cc1 [CBK266233] | 103.3
75 | COc1ccc(-c2cc(C(=O)NCCc3c[nH]c4ccccc34)cnc2-c2ccc(F)cc2)cn1 [CBK036649] | 119.873
76 | CC(C)(C)C(=O)NC1(C(F)(F)F)N=C(c2ccccc2)NC1=O (stereo not drawn) [CBK267475] | 107.551
77 | CCc1c(C)sc(NC(=O)C2CCC2)c1C(=O)NCc1cccnc1 [CBK307414] | 86.3661
78 | Cc1ccc(CNC(=O)c2nnc(C(=O)Nc3cccc(Cl)c3)s2)o1 [CBK294404] | 63.4864
79 | Cc1nc(C)c(C(=O)N2Cc3ccccc3C2)s1 [CBK200326] | 124.205
80 | Cc1ccc(-n2c(C)cc(/C=N/NC(=O)c3ccc(CN4CCOCC4)cc3)c2C)cc1 [CBK263324] | 119.888
81 | C=CCn1ncc(CN(CCN(C)C)Cc2ccc(C)o2)c1C [CBK282846] | 121.582
